# Test results from publication PMC4336329 (PLoS ONE, 2015).
# Out of some 310,000 compounds screened, about 14,000 (4.5%) showed an effect of 50% or more. The effect is printed as a negative number. The list shows a part of the results.
# Biological target: human ether-à-go-go-related gene (hERG) potassium channel (human, UniProt Q12809)
# Test: primary screen, population patch clamp on CHO cells stably expressing hERG
# 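Note: peak tail current of the secondary pulse compared with the same well before compound.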
# human ether-à-go-go-related gene (hERG) potassium channel, sequence (Q12809 whole entry, looked up): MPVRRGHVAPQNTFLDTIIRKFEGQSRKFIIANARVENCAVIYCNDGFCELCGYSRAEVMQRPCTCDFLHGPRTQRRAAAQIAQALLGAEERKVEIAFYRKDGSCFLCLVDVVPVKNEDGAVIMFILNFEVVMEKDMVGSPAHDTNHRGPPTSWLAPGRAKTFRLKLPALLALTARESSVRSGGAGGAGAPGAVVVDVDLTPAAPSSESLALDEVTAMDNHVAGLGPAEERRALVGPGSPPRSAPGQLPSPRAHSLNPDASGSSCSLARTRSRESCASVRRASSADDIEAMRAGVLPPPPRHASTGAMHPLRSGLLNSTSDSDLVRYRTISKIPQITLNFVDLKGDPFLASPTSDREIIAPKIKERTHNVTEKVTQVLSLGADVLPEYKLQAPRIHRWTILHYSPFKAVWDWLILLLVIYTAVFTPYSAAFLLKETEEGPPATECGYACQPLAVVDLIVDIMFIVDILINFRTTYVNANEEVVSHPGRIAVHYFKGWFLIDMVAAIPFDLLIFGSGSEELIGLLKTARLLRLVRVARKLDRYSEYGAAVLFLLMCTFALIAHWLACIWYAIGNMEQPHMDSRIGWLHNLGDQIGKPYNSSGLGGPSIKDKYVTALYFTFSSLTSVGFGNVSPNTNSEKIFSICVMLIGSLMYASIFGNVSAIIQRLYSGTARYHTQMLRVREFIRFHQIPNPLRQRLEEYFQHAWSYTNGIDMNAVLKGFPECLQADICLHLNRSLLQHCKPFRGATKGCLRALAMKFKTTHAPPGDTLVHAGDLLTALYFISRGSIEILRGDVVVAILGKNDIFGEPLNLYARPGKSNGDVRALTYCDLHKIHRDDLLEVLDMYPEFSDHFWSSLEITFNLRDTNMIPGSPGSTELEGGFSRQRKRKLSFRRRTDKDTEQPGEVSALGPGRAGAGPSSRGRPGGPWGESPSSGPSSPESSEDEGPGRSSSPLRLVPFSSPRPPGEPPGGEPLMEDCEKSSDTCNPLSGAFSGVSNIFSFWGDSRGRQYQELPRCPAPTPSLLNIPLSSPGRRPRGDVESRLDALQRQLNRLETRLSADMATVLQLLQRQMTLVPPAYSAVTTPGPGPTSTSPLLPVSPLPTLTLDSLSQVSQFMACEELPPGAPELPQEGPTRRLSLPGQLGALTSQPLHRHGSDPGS
row,Structure (SMILES),"hERG current change (%, negative = inhibition) at 10uM"
1,CC(C)(C)c1ccc(C(=O)Nc2ccc(CC(=O)O)cc2)o1,-6.81%
2,CCc1noc(C)c1C(=O)OC(C)C(=O)Nc1ccc(Cl)cn1 (centres unmarked),-17.8%
3,COc1ccc(CN2C(=O)[C@H]3Cc4c([nH]c5ccccc45)C(C)(C)N3C2=O)cc1,7%
4,CC(=O)c1ccc(-n2cc(-c3ccc(C(C)(C)C)cc3)[n+]3c2SCCC3)cc1.[Br-],-30.1%
5,CSc1cccc(CNC(=O)C2CCC(=O)N(CCc3ccccn3)C2)c1 (centres unmarked),4.83%
6,COc1ccccc1NS(=O)(=O)c1cc(NC(=O)c2ccncc2)ccc1N1CCOCC1,-5.62%
7,O=c1c2ccccc2nc(-c2ccccc2)n1-c1ccccn1,18.5%
8,O=c1oc2cc(O)ccc2c2ccccc12,2.06%
9,Cc1onc(-c2ccccc2)c1C(=O)NCc1ccco1,7.93%
10,CNC(=O)/C(C#N)=C/c1c(N2CCN(c3ccccc3)CC2)nc2c(C)cccn2c1=O,-31.6%
11,CC(=O)OCC(=O)[C@@]1(O)CC[C@H]2[C@@H]3CCC4=CC(=O)CC[C@]4(C)[C@H]3C(=O)C[C@@]21C,-14.6%
12,O=C(NCc1ccncc1)C(=O)N/N=C/c1cccnc1,20%
13,O=C1c2oc3ccc(Cl)cc3c(=O)c2C(c2ccco2)N1CCN1CCOCC1 (centres unmarked),2.36%
14,CCOC(=O)c1c(NC(=O)Cc2ccccc2)sc2c1CCN(CC)C2.Cl,-65.3%
15,CCCCN(C)CCNC(=O)Cn1c(=O)sc2ccccc21,-8.43%
16,Cl.NC(N)=NC(N)=Nc1ccc(SC(F)(F)F)cc1,-21.3%
17,O=C(O)CCc1ncc(C(F)(F)F)cc1Cl,17.1%
18,COC(=O)c1cc(-c2ccccc2)n[nH]1,4.06%
19,CC(C)c1nc(SCC(=O)c2ccc(F)cc2)c2ccccc2n1,19.2%

row,Structure (SMILES),"hERG current change (%, negative = inhibition) at 10uM"
1,Br.CCCc1cc(-c2nc(-c3ccc(Cl)cc3)cs2)ccn1,-0.513%
2,O=C(Cn1ccc([N+](=O)[O-])n1)Nc1nc2ccccc2s1,-45.8%
3,O=C(NCc1ccccc1Cl)C1CCC(=O)N1Cc1ccc(F)cc1 (centres unmarked),9.39%
4,O=C(c1ccc([N+](=O)[O-])cc1)N1CCN(c2ncc(Br)cn2)CC1,-32%
5,Cc1ccccc1NC(=O)CCCNC(=O)c1ccc(Cl)cc1,16.9%
6,COc1ccccc1OCC(=O)Nc1ccc(N2CCCCC2)cc1,-29%
7,Cc1cccc(N/C(N)=N/c2nc(C)cc(=O)[nH]2)c1,19.3%
8,COc1ccc(-c2cnc(N)nc2-c2ccc(OCc3ccccc3)cc2O)cc1,9.83%
9,Cc1ccc(C(=O)NCc2ccco2)cc1[N+](=O)[O-],-9.12%
10,CCNC(=S)N/N=C(\C)c1ccc2ccccc2c1OC(F)F,-13.2%
11,O=C1C(C2=NC(C(=O)O)C3C(=O)N(c4ccc(Cl)cc4)C(=O)C23)=C(O)c2ccccc21 (centres unmarked),2.54%
12,CCOC(=O)CC(=O)CSc1nc2nc(C)cc(C)n2n1,8.34%
13,Cc1ccc(N2CC(C(=O)OCC(=O)C(C)(C)C)CC2=O)cc1C (centres unmarked),-1.57%
14,Cc1ccc(-n2ncc3c2CC(C)(C)CC3NC(=O)CN2CCCC2=O)cc1 (centres unmarked),-8.66%
15,Cc1ccc(-c2nn(C)c(=O)c3ccccc23)cc1CNC(=O)c1ccco1,-36.7%
16,CSCCC(NS(=O)(=O)c1cccc(C(F)(F)F)c1)C(=O)N(C)CCOc1ccc(Cl)cc1 (centres unmarked),9.27%
17,C[C@H]1CC[C@]2(O[C@@H](CCO)C[C@@H](O)[C@@H]2O)O1,5.54%
18,O=C(Nc1ccc(F)cc1)c1ccc2[nH]c(=O)c(=O)[nH]c2c1,9.25%
19,COc1cccc2c1OCC(CN1CCN(Cc3ccccc3)C(CCO)C1)=C2 (centres unmarked),-47.6%

row,Structure (SMILES),"hERG current change (%, negative = inhibition) at 10uM"
1,COc1cc(/C=N/Nc2nc(Nc3ccc(C)cc3)nc(-n3nc(C)cc3C)n2)cc(OC)c1OC,1.26%
2,Fc1ccc(-c2nc3n(n2)Cc2ccccc2-3)cc1,0.598%
3,CCc1nc(N2CCCCC2)c2oc3ccccc3c2n1.Cl,6.57%
4,O=C1c2ccccc2S(=O)(=O)c2cc(N3CCC(C(=O)N4CCCCC4)CC3)ccc21,-3.7%
5,COC(=O)Nc1nc2ccc(-c3n[nH]c(=O)c4ccccc34)cc2[nH]1,11.4%
6,CCN(CC(=O)Nc1ccc(NC(C)=O)cc1)CC(=O)Nc1cc(C)on1,-3.38%
7,COC(=O)c1ccc(NC(=O)CN(c2ccc(OC)cc2)S(C)(=O)=O)cc1,-3.66%
8,O=C(Nc1ccncc1Cl)c1ccncc1,8.56%
9,Cc1ccc(NC(=O)N2CCc3ccccc3C2)cc1C,15.2%
10,CC(=O)C1=C(C)NC(SCC(=O)c2ccc(Cl)cc2Cl)=C(C#N)C1c1ccco1 (centres unmarked),1.79%
11,CN1CCN(CCC(=O)N/N=C/C=C2\N(C)c3ccccc3C2(C)C)CC1,6.4%
12,CCOC(=O)c1[nH]c2cc3c(cc2c1NC(=O)CN1CCCC1)OCO3,-10.5%
13,CN(C(=S)Nc1cccnc1)c1ccc(O)cc1,17.1%
14,COC(=O)CC1COc2ccccc2N1C(=O)c1ccc(OC)cc1 (centres unmarked),-11.6%
15,ClC(=C\c1ccccc1)/C=N/N1CCN(c2ccccn2)CC1,-8.89%
16,CC(CC(=O)Nc1ccccc1)NCCCN1CCCC1=O.O=C(O)C(=O)O (centres unmarked),19.4%
17,CCN1CCN(Cc2c(O)ccc3c(=O)c(-c4ccccc4OC)coc23)CC1,-4.86%
18,O=C(C1CC(=O)N(C2CCCC2)C1)N1CCN(c2ccccc2F)CC1 (centres unmarked),-2.24%
